One assay has as its target T1, Cyno TfR ECD Avi-His (cynomolgus macaque, UniProt Q5RDH6 89-760 (Pongo abelii entry), biotin on the Avi tag (BirA) where captured on streptavidin).
T1 construct: also called Cyno TfR Avi-His; cyno TfR Avi-His
T1 chain: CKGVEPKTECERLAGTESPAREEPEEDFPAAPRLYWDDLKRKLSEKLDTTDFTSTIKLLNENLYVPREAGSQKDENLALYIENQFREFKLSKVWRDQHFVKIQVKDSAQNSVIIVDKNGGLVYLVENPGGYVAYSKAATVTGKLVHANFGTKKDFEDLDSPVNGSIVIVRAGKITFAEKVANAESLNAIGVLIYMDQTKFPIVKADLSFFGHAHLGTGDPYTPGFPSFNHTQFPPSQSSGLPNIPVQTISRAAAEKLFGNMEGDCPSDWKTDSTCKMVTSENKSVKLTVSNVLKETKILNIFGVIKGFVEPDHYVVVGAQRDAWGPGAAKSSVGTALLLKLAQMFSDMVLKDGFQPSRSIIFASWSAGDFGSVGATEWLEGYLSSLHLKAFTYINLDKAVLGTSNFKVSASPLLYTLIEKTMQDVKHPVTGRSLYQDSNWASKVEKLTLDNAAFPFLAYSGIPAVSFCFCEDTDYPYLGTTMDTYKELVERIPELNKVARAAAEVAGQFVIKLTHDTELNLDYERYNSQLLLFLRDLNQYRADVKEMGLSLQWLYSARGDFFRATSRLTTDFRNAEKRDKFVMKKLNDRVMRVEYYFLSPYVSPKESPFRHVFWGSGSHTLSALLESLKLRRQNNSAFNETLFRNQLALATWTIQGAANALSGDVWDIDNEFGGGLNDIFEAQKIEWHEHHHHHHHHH
Kind of assay: ELISA OD450.

Assay [1] deals with T2, huTfR Apical Domain-Avi-His (human, biotin on the Avi tag (BirA) where captured on streptavidin).
T2 construct: also called huTfR apical Avi-His; hTfR Apical
T2 chain: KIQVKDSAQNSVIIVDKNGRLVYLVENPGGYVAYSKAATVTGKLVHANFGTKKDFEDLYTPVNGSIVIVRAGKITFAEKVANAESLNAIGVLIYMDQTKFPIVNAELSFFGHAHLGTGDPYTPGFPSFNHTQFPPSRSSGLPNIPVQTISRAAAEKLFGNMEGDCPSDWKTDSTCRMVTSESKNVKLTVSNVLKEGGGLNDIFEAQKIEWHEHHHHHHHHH
Kind of assay: ELISA OD450.

Assay [2] concerns the target T3, Mouse TfR (muTfR) ECD Avi-His (mouse, UniProt Q62351, biotin on the Avi tag (BirA) where captured on streptavidin).
T3 construct: also called MuTfR Avi-His
As to the kind of experiment: ELISA OD450. In general terms: ELISA stands for enzyme-linked immunosorbent assay.

Assay [3] concerns the target T4, Full length human TfR on CHO cells (human, UniProt P02786).
T4 construct: also called CHO + huTfR; CHO + hTfR
T4 sequence (P02786 whole entry): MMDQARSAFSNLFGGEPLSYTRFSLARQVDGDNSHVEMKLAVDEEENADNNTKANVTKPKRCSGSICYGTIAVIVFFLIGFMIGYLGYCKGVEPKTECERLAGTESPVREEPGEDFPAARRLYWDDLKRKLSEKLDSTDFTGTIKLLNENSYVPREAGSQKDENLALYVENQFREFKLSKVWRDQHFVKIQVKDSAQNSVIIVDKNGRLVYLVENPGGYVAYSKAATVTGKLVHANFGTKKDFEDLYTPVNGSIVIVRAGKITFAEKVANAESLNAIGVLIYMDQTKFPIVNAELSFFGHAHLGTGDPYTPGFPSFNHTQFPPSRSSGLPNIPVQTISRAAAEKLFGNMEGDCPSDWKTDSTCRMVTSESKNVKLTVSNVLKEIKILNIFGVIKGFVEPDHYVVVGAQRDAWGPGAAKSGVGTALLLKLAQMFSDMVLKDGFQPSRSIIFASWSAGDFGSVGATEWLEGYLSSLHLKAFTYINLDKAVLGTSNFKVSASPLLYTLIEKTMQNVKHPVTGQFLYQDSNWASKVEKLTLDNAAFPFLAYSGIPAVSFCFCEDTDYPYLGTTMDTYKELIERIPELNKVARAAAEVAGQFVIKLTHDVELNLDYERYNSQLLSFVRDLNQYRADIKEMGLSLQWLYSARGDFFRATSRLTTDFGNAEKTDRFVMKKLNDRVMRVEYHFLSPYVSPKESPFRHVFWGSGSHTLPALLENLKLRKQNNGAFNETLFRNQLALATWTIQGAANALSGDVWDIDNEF
Kind of assay: FACS MFI.

B1: TfR2 2+1 anti-TfR bispecific antibody (bispecific antibody, human IgG1, kappa)
heavy 1: EVRLLESGGGLVQPGGSLRLSCAASGFTFSNYAMGWVRQAPGKGLEWVSAISGSGGSTYYADSVKGRFTTSRDDSKNALYLQMNSLRAEDTAVYYCARGGPGWYAADVWGQGTTVTVSSASTKGPSVFPLAPSSKSTSGGTAALGCLVKDYFPEPVTVSWNSGALTSGVHTFPAVLQSSGLYSLSSVVTVPSSSLGTQTYICNVNHKPSNTKVDKKV[here human IgG1 Fc with changes without letters]GGGGSGGGGSGGGGSEVQLQQSGPELVKPGASVKISCKASGYTFTDYNMHWVKQSHGKSLEWIGYIYPYNGGTGYNQKFKSKATLTVDNSSSTAYMELRSLTSEDSAVYYCATLYDGYYFDYWGQGTTLTVSSGGSEGKSSGSGSESKSTGGSDILLTQSPAILSVSPGERVSFSCRASQSIGTSIHWYQQRTNGSPRLLIKYASESISGIPSRFSGSGSGTDFTLSINNVESEDIADYYCQQSNSWPFTFGSGTKLEIK
heavy 2: EVRLLESGGGLVQPGGSLRLSCAASGFTFSNYAMGWVRQAPGKGLEWVSAISGSGGSTYYADSVKGRFTTSRDDSKNALYLQMNSLRAEDTAVYYCARGGPGWYAADVWGQGTTVTVSS[here human IgG1 constant region with changes without letters]
light: DIQMTQSPSSLSASVGDRVTITCRASQSISSYLNWYQQKPGKAPKLLIYAASSLQSGVPSRFSGSGSGTDFTLTISSLQPEDFATYYCQQADLPAFAFGGGTKVEIKRTVAAPSVFIFPPSDEQLKSGTASVVCLLNNFYPREAKVQWKVDNALQSGNSQESVTEQDSKDSTYSLSSTLTLSKADYEKHKVYACEVTHQGLSSPVTKSFNRGEC
notes: 2+1
Consider B1, for which the “fold over isotype control” value (with Cyno TfR ECD Avi-His; in assay [1]; in assay [2]) was 1 fold in each case. The “fold over CHO parental” value in assay [3] was 1 fold.

B2: TfR4 2+1 anti-TfR bispecific antibody (bispecific antibody, human IgG1, kappa)
heavy 1: EVRLLESGGGLVQPGGSLRLSCAASGFTFSNYAMGWVRQAPGKGLEWVSAISGSGGSTYYADSVKGRFTTSRDDSKNALYLQMNSLRAEDTAVYYCARGGPGWYAADVWGQGTTVTVSSASTKGPSVFPLAPSSKSTSGGTAALGCLVKDYFPEPVTVSWNSGALTSGVHTFPAVLQSSGLYSLSSVVTVPSSSLGTQTYICNVNHKPSNTKVDKKV[here human IgG1 Fc with changes without letters]GGGGSGGGGSGGGGSQVQLQQSGAELVRPGTSVKVSCKASGYAFTNYLIEWVKQRPGQGLEWIGVINPGSGGTTYNEKFKGKATLTADKSSSTAYMQLSGLTSDDSAVYFCARRSPYFDYWGQGTTLTVSSGGSEGKSSGSGSESKSTGGSSIVMTQTPKFLLVSAGDRVTITCKASQSVSNDVAWYQQKPGQSPKLLIYYASNRYTGVPDRFTGSGYGTDFTFTISTVQAEDLAVYFCHQDYISPTFGGGTKLEIK
heavy 2: EVRLLESGGGLVQPGGSLRLSCAASGFTFSNYAMGWVRQAPGKGLEWVSAISGSGGSTYYADSVKGRFTTSRDDSKNALYLQMNSLRAEDTAVYYCARGGPGWYAADVWGQGTTVTVSS[here human IgG1 constant region with changes without letters]
light: DIQMTQSPSSLSASVGDRVTITCRASQSISSYLNWYQQKPGKAPKLLIYAASSLQSGVPSRFSGSGSGTDFTLTISSLQPEDFATYYCQQADLPAFAFGGGTKVEIKRTVAAPSVFIFPPSDEQLKSGTASVVCLLNNFYPREAKVQWKVDNALQSGNSQESVTEQDSKDSTYSLSSTLTLSKADYEKHKVYACEVTHQGLSSPVTKSFNRGEC
notes: 2+1
On to B2, for which the “fold over isotype control” value came to 1 fold with Cyno TfR ECD Avi-His, 40 fold in assay [1] and 1 fold in assay [2]. Besides, the “fold over CHO parental” value in assay [3] is 305 fold.

B3: TfR6 2+1 anti-TfR bispecific antibody (bispecific antibody, human IgG1, kappa)
heavy 1: EVRLLESGGGLVQPGGSLRLSCAASGFTFSNYAMGWVRQAPGKGLEWVSAISGSGGSTYYADSVKGRFTTSRDDSKNALYLQMNSLRAEDTAVYYCARGGPGWYAADVWGQGTTVTVSSASTKGPSVFPLAPSSKSTSGGTAALGCLVKDYFPEPVTVSWNSGALTSGVHTFPAVLQSSGLYSLSSVVTVPSSSLGTQTYICNVNHKPSNTKVDKKV[here human IgG1 Fc with changes without letters]GGGGSGGGGSGGGGSDVQLVESGGGLVQPGGSRKLSCAASGFTFSSFGMHWVRQAPEKGLEWVAYISSGSSAIYYADTVKGRFTVSRDNPKNTLFLQMTSLRSEDTAIYYCATSYVYDPPWFAYWGQGTLVTVSAGGSEGKSSGSGSESKSTGGSDIVMTQSHKFMSTSVGDRVSITCKASQDVSTAVAWYQQKPGQSPKLLIYWASTRPTGVPDRFTGSGSGTDYTLTISSVQAEDLALYSCQQHFSTPWTFGGGTKLEIK
heavy 2: EVRLLESGGGLVQPGGSLRLSCAASGFTFSNYAMGWVRQAPGKGLEWVSAISGSGGSTYYADSVKGRFTTSRDDSKNALYLQMNSLRAEDTAVYYCARGGPGWYAADVWGQGTTVTVSS[here human IgG1 constant region with changes without letters]
light: DIQMTQSPSSLSASVGDRVTITCRASQSISSYLNWYQQKPGKAPKLLIYAASSLQSGVPSRFSGSGSGTDFTLTISSLQPEDFATYYCQQADLPAFAFGGGTKVEIKRTVAAPSVFIFPPSDEQLKSGTASVVCLLNNFYPREAKVQWKVDNALQSGNSQESVTEQDSKDSTYSLSSTLTLSKADYEKHKVYACEVTHQGLSSPVTKSFNRGEC
notes: 2+1
For the molecule B3, the entries for the “fold over isotype control” value (in the assay with Cyno TfR ECD Avi-His; in assay [1]; in assay [2]) were 21 fold, 1 fold and 1 fold, respectively. The “fold over CHO parental” value in assay [3] was determined as 19 fold.

B4: TfR8 2+1 anti-TfR bispecific antibody (bispecific antibody, human IgG1, kappa)
heavy 1: EVRLLESGGGLVQPGGSLRLSCAASGFTFSNYAMGWVRQAPGKGLEWVSAISGSGGSTYYADSVKGRFTTSRDDSKNALYLQMNSLRAEDTAVYYCARGGPGWYAADVWGQGTTVTVSSASTKGPSVFPLAPSSKSTSGGTAALGCLVKDYFPEPVTVSWNSGALTSGVHTFPAVLQSSGLYSLSSVVTVPSSSLGTQTYICNVNHKPSNTKVDKKV[here human IgG1 Fc with changes without letters]GGGGSGGGGSGGGGSQVQLQQSGAELVRPGTSVKVSCKASGYAFTNYLIEWVKQRPGQGLEWIGVINPGSGGTNYNEKFKGKATLTADKSSSTAYMQLSSLTSDDSAVYFCARRSPYFDYWGQGTTLTVSSGGSEGKSSGSGSESKSTGGSSIVMTQTPKFLLVSAGDRVTITCKASQSVSNDVAWYQQKPGQSPKLLIYYASNRYTGVPDRFTGSGYGTDFTFTISTVQAEDLAVYFCHQDYISPTFGGGTKLEIK
heavy 2: EVRLLESGGGLVQPGGSLRLSCAASGFTFSNYAMGWVRQAPGKGLEWVSAISGSGGSTYYADSVKGRFTTSRDDSKNALYLQMNSLRAEDTAVYYCARGGPGWYAADVWGQGTTVTVSS[here human IgG1 constant region with changes without letters]
light: DIQMTQSPSSLSASVGDRVTITCRASQSISSYLNWYQQKPGKAPKLLIYAASSLQSGVPSRFSGSGSGTDFTLTISSLQPEDFATYYCQQADLPAFAFGGGTKVEIKRTVAAPSVFIFPPSDEQLKSGTASVVCLLNNFYPREAKVQWKVDNALQSGNSQESVTEQDSKDSTYSLSSTLTLSKADYEKHKVYACEVTHQGLSSPVTKSFNRGEC
notes: 2+1
Take B4: the “fold over isotype control” value with Cyno TfR ECD Avi-His was found to be 1 fold; in assay [1], 32 fold; in assay [2], 1 fold. In assay [3], the “fold over CHO parental” value came to 293 fold.

B5: TfR18 2+1 anti-TfR bispecific antibody (bispecific antibody, human IgG1, kappa)
heavy 1: EVRLLESGGGLVQPGGSLRLSCAASGFTFSNYAMGWVRQAPGKGLEWVSAISGSGGSTYYADSVKGRFTTSRDDSKNALYLQMNSLRAEDTAVYYCARGGPGWYAADVWGQGTTVTVSSASTKGPSVFPLAPSSKSTSGGTAALGCLVKDYFPEPVTVSWNSGALTSGVHTFPAVLQSSGLYSLSSVVTVPSSSLGTQTYICNVNHKPSNTKVDKKV[here human IgG1 Fc with changes without letters]GGGGSGGGGSGGGGSQVQLQQSGAELVRPGTSVKVSCKASGYAFTNYLIEWIKQRPGQGLEWIGVINPGNNDTTYNEMFKAKTTLTADKSSNTAYMQLSSLTSDDSAVYFCARRSPYFDYWGQGTTLTVSSGGSEGKSSGSGSESKSTGGSSIVMTQTPKFLLVSAGDRVTITCKASQSVSNDVAWYQQKPGQSPKLLIYYASNRYTGVPDRFTGSGYGTDFTFTISTVQAEDLAVYFCHQDYSSPTFGGGTKLEIK
heavy 2: EVRLLESGGGLVQPGGSLRLSCAASGFTFSNYAMGWVRQAPGKGLEWVSAISGSGGSTYYADSVKGRFTTSRDDSKNALYLQMNSLRAEDTAVYYCARGGPGWYAADVWGQGTTVTVSS[here human IgG1 constant region with changes without letters]
light: DIQMTQSPSSLSASVGDRVTITCRASQSISSYLNWYQQKPGKAPKLLIYAASSLQSGVPSRFSGSGSGTDFTLTISSLQPEDFATYYCQQADLPAFAFGGGTKVEIKRTVAAPSVFIFPPSDEQLKSGTASVVCLLNNFYPREAKVQWKVDNALQSGNSQESVTEQDSKDSTYSLSSTLTLSKADYEKHKVYACEVTHQGLSSPVTKSFNRGEC
notes: 2+1
Turning to B5, the “fold over isotype control” value is 1 fold with Cyno TfR ECD Avi-His, 39 fold in assay [1] and 1 fold in assay [2]. For the same molecule, the “fold over CHO parental” value in assay [3] stood at 777 fold.
